# From the supplement of paper PMC8728848
# The list shows a part of the results.
# B1: CML1 (Coprinopsis cinerea) (protein)
# chain: MAIFHTGSELFIITRGPGKLTLLTWGGLNNLRSVIGAIPTENTGVTKWAVSFSHNYTRFSFIWEGQGEACYQIGNGLTRSPVGRSWSSSSTIHWGSSTVITEDVTSVVPGAVNRDKVTTAYALPDNL
# Columns and labels:
# Test in all cases: glycan array binding signal (z-score within array); higher = stronger binding
# Details in all cases: glycan notation: IUPAC condensed, linker removed
# [1] = target: Fuc(a1-2)Gal(b1-4)GlcNAc(b1-3)Gal(b1-4)GlcNAc(b1-2)Man(a1-3)[Fuc(a1-2)Gal(b1-4)GlcNAc(b1-3)Gal(b1-4)GlcNAc(b1-2)Man(a1-6)]Man(b1-4)GlcNAc(b1-4)GlcNAc
# Summary of the method: (§1)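 Arrays were curated from the Consortium for Functional Glycomics database, 3228 in total, and kept only where the protein sequence was available. Binding is expressed as a within-array Z-score. This score was averaged across arrays of the same protein sequence at different concentrations or buffers and across linkers, and negative values can be read as non-binding.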
# [2] = target: Fuc(a1-2)Gal(b1-4)GlcNAc(b1-3)Gal(b1-4)GlcNAc(b1-3)Gal(b1-4)GlcNAc
# Summary of the method: as §1
# [3] = target: Fuc(a1-2)Gal(b1-4)GlcNAc(b1-3)GalNAc
# Summary of the method: as §1
# [4] = target: Fuc(a1-2)Gal(b1-4)GlcNAc(b1-3)[Fuc(a1-2)Gal(b1-4)GlcNAc(b1-6)]GalNAc
# Summary of the method: as §1
# [5] = target: Fuc(a1-2)Gal(b1-4)GlcNAc(b1-3)[Fuc(a1-3)[Gal(b1-4)]GlcNAc(b1-6)]Gal(b1-4)Glc
# Summary of the method: as §1
# [6] = target: Fuc(a1-2)Gal(b1-4)GlcNAc(b1-6)GalNAc
# Summary of the method: as §1
# [7] = target: Fuc(a1-2)Gal(b1-4)GlcNAc6S
# Summary of the method: as §1
# [8] = target: Fuc(a1-2)Gal(b1-4)[Fuc(a1-3)]GlcNAc
# Summary of the method: as §1
# [9] = target: Fuc(a1-2)Gal(b1-4)[Fuc(a1-3)]GlcNAc(b1-2)Man(a1-3)[Fuc(a1-2)Gal(b1-4)[Fuc(a1-3)]GlcNAc(b1-2)Man(a1-6)]Man(b1-4)GlcNAc(b1-4)[Fuc(a1-6)]GlcNAc
# Summary of the method: as §1
# [10] = target: Fuc(a1-2)Gal(b1-4)[Fuc(a1-3)]GlcNAc(b1-2)[Fuc(a1-2)Gal(b1-4)[Fuc(a1-3)]GlcNAc(b1-4)]Man(a1-3)[Fuc(a1-2)Gal(b1-4)[Fuc(a1-3)]GlcNAc(b1-2)Man(a1-6)]Man(b1-4)GlcNAc(b1-4)GlcNAc
# Summary of the method: as §1
# [11] = target: Fuc(a1-2)Gal(b1-4)[Fuc(a1-3)]GlcNAc(b1-3)Gal(b1-4)[Fuc(a1-3)]GlcNAc
# Summary of the method: as §1
# [12] = target: Fuc(a1-2)Gal(b1-4)[Fuc(a1-3)]GlcNAc(b1-3)Gal(b1-4)[Fuc(a1-3)]GlcNAc(b1-3)Gal(b1-4)[Fuc(a1-3)]GlcNAc
# Summary of the method: as §1
# [13] = target: Fuc(a1-2)Gal(b1-4)[Fuc(a1-3)]GlcNAc(b1-3)GalNAc
# Summary of the method: as §1
# [14] = target: Fuc(a1-2)Gal(b1-4)[Fuc(a1-3)]GlcNAc(b1-3)[Neu5Ac(a2-6)Gal(b1-4)GlcNAc(b1-6)]Gal(b1-4)Glc
# Summary of the method: as §1
# [15] = target: Fuc(a1-2)Gal3S(b1-4)GlcNAc
# Summary of the method: as §1
# [16] = target: Fuc(a1-2)Gal6S(b1-3)GlcNAc
# Summary of the method: as §1
# [17] = target: Fuc(a1-2)Gal6S(b1-3)GlcNAc6S
# Summary of the method: as §1
# [18] = target: Fuc(a1-2)Gal6S(b1-4)Glc
# Summary of the method: as §1
# [19] = target: Fuc(a1-2)Gal6S(b1-4)Glc6S
# Summary of the method: as §1
# [20] = target: Fuc(a1-2)[Gal(a1-3)]Gal
# Summary of the method: as §1
# [21] = target: Fuc(a1-2)[Gal(a1-3)]Gal(b1-3)GalNAc
# Summary of the method: as §1
# [22] = target: Fuc(a1-2)[Gal(a1-3)]Gal(b1-3)GalNAc(b1-3)Gal(a1-4)Gal(b1-4)Glc
# Summary of the method: as §1
# [23] = target: Fuc(a1-2)[Gal(a1-3)]Gal(b1-3)GlcNAc
# Summary of the method: as §1
# [24] = target: Fuc(a1-2)[Gal(a1-3)]Gal(b1-3)GlcNAc(b1-2)Man(a1-3)[Fuc(a1-2)[Gal(a1-3)]Gal(b1-3)GlcNAc(b1-2)Man(a1-6)]Man(b1-4)GlcNAc(b1-4)GlcNAc
# Summary of the method: as §1
# [25] = target: Fuc(a1-2)[Gal(a1-3)]Gal(b1-3)GlcNAc(b1-2)Man(a1-3)[Fuc(a1-2)[Gal(a1-3)]Gal(b1-3)GlcNAc(b1-2)Man(a1-6)]Man(b1-4)GlcNAc(b1-4)[Fuc(a1-6)]GlcNAc
# Summary of the method: as §1
# [26] = target: Fuc(a1-2)[Gal(a1-3)]Gal(b1-3)GlcNAc(b1-3)GalNAc
# Summary of the method: as §1
# [27] = target: Fuc(a1-2)[Gal(a1-3)]Gal(b1-3)GlcNAc(b1-6)GalNAc
# Summary of the method: as §1
# [28] = target: Fuc(a1-2)[Gal(a1-3)]Gal(b1-4)Glc
# Summary of the method: as §1
# [29] = target: Fuc(a1-2)[Gal(a1-3)]Gal(b1-4)GlcNAc
# Summary of the method: as §1
# [30] = target: Fuc(a1-2)[Gal(a1-3)]Gal(b1-4)GlcNAc(b1-2)Man
# Summary of the method: as §1
binder,measurement,setting,value
B1,glycan array binding signal (z-score),[1],0.069
same,glycan array binding signal (z-score),[2],-0.066
same,glycan array binding signal (z-score),[3],-0.324
same,glycan array binding signal (z-score),[4],-0.306
same,glycan array binding signal (z-score),[5],1.19
same,glycan array binding signal (z-score),[6],-0.324
same,glycan array binding signal (z-score),[7],1.04
same,glycan array binding signal (z-score),[8],1.22
same,glycan array binding signal (z-score),[9],0.227
same,glycan array binding signal (z-score),[10],-0.287
same,glycan array binding signal (z-score),[11],2.74
same,glycan array binding signal (z-score),[12],1.69
same,glycan array binding signal (z-score),[13],-0.336
same,glycan array binding signal (z-score),[14],0.503
same,glycan array binding signal (z-score),[15],-0.157
same,glycan array binding signal (z-score),[16],3.23
same,glycan array binding signal (z-score),[17],3.67
same,glycan array binding signal (z-score),[18],1.17
same,glycan array binding signal (z-score),[19],1.75
same,glycan array binding signal (z-score),[20],-0.32
same,glycan array binding signal (z-score),[21],-0.003
same,glycan array binding signal (z-score),[22],-0.267
same,glycan array binding signal (z-score),[23],3.51
same,glycan array binding signal (z-score),[24],2.99
same,glycan array binding signal (z-score),[25],1.07
same,glycan array binding signal (z-score),[26],1.78
same,glycan array binding signal (z-score),[27],2.21
same,glycan array binding signal (z-score),[28],-0.311
same,glycan array binding signal (z-score),[29],-0.352
same,glycan array binding signal (z-score),[30],-0.329
